# Measurements reported in the supplement of paper PMC4604168 (melanoma cell lines).
# Some of the results follow. Single values are uncertain, as repeats are few or missing.
# Experiments:
# Test in all cases: cell count relative to DMSO control; melanoma cells; higher = more viable cells
# Conditions in all cases: library dose: low library concentration; 72 h; first compound 0.4 µM
# MZ2-MEL = tested on: MZ2-MEL
# MeWo = tested on: MeWo
# RPMI7951 = tested on: RPMI7951
# RVH-421 = tested on: RVH-421
# SkMel28 = tested on: SkMel28
# SkMel2 = tested on: SkMel2
# SkMel30 = tested on: SkMel30
# SkMel5 = tested on: SkMel5
# UACC257 = tested on: UACC257
# UACC62 = tested on: UACC62
# 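Note: cell number obtained by counting DAPI-stained nuclei in high-throughput microscope images with image analysis software, screen run in 1,536-well plates.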
SMILES,cell count (MZ2-MEL) [%],cell count (MeWo) [%],cell count (RPMI7951) [%],cell count (RVH-421) [%],cell count (SkMel28) [%],cell count (SkMel2) [%],cell count (SkMel30) [%],cell count (SkMel5) [%],cell count (UACC257) [%],cell count (UACC62) [%]
CCCCCCCCCCCCCCCCCCOP(=O)([O-])OC1CC[N+](C)(C)CC1 [Perifosine] + O=C(O)C(=O)Nc1sc2c(c1C(=O)O)CCNC2 [TCS401] (partner dose 1.66667 µM),101,102,75.6,86.8,90.3,101,91,87.3,107,94.9
CCCCCCCCCCCCCCCCCCOP(=O)([O-])OC1CC[N+](C)(C)CC1 [Perifosine] + Cc1cc([N+](=O)[O-])ccc1NS(=O)(=O)c1cc(Cl)ccc1Cl [FH535] (partner dose 1 µM),94.2,96.9,67.9,105,85,92.1,104,85.3,76.8,73.4
CCCCCCCCCCCCCCCCCCOP(=O)([O-])OC1CC[N+](C)(C)CC1 [Perifosine] + O=S(=O)(c1ccccc1)N(CC(F)(F)F)c1ccc(C(O)(C(F)(F)F)C(F)(F)F)cc1 [T0901317] (partner dose 1.4 µM),98.9,93.5,77.5,70,89.1,95.7,73.2,88.5,81.3,81.2
Cn1sc(=O)n(Cc2ccccc2)c1=O + COc1ccc(COc2ccc(Cc3cnc(N)nc3N)cc2OC)cc1 [GW2580] (partner dose 1 µM),95.8,103,90.2,108,91.5,103,104,91.3,87.9,97.5
CCCCCCCCCCCCCCCCCCOP(=O)([O-])OC1CC[N+](C)(C)CC1 [Perifosine] + C[C@@H]1CCN(C(=O)CC#N)C[C@@H]1N(C)c1ncnc2[nH]ccc12 [CP690550] (partner dose 1 µM),100,98.2,30.3,91.6,98.8,101,122,101,95.1,87.9
CCCCCCCCCCCCCCCCCCOP(=O)([O-])OC1CC[N+](C)(C)CC1 [Perifosine] + CN(C)S(=O)(=O)c1ccc2c(c1)/C(=C/c1cc3c([nH]1)CCCC3)C(=O)N2 [SU6656] (partner dose 0.4 µM),105,85.5,88.9,98.2,92.9,101,90.2,80,82.1,83.3
C[C@@H](N)c1ccc(C(=O)Nc2ccnc3[nH]ccc23)cc1 + COc1cc2ncnc(Nc3ccc(Oc4ccccc4)cc3)c2cc1OC [SrcI1] (partner dose 2 µM),67.9,83.6,80.7,58.4,71.7,102,104,89,73.6,93
C[C@@H](N)c1ccc(C(=O)Nc2ccnc3[nH]ccc23)cc1 + CC(C)(C)c1cnc(CSc2cnc(NC(=O)C3CCNCC3)s2)o1 [SNS-032] (partner dose 0.01 µM),71.8,86.4,65.6,75.9,78.2,101,94.8,69.8,80.3,73
C[C@@H](N)c1ccc(C(=O)Nc2ccnc3[nH]ccc23)cc1 + COc1cc2c(Oc3ccc4[nH]c(C)cc4c3F)ncnc2cc1OCCCN1CCCC1 [cediranib] (partner dose 0.4 µM),84.2,62.3,83.1,73,64,108,110,67.2,58.3,81.4
Cn1sc(=O)n(Cc2ccccc2)c1=O + Oc1nc(-c2ccc(C(F)(F)F)cc2)nc2c1CSCC2 [XAV939] (partner dose 2 µM),107,100,66.5,86.4,87.1,105,105,79.3,69.2,85.6
C[C@@H](N)c1ccc(C(=O)Nc2ccnc3[nH]ccc23)cc1 + C[C@@H]1CCN(C(=O)CC#N)C[C@@H]1N(C)c1ncnc2[nH]ccc12 [CP690550] (partner dose 1 µM),88.5,92.3,89.8,64.8,83.2,105,121,97.2,79.7,117
CCCCCCCCCCCCCCCCCCOP(=O)([O-])OC1CC[N+](C)(C)CC1 [Perifosine] + CCc1ccc(CCOc2ccc(CC3SC(=O)NC3=O)cc2)nc1 [pioglitazone] (partner dose 2 µM),102,92.1,59.9,106,63.6,86.5,63,112,96.8,79.2
CCCCCCCCCCCCCCCCCCOP(=O)([O-])OC1CC[N+](C)(C)CC1 [Perifosine] + O=C(Nc1ccccc1)c1cc([N+](=O)[O-])ccc1Cl [GW9662] (partner dose 2 µM),104,101,70.2,79.2,101,94.5,84.5,94.5,109,83.4
C[C@@H](N)c1ccc(C(=O)Nc2ccnc3[nH]ccc23)cc1 + OCCn1cc(-c2cnc3nnn(Cc4ccc5ncccc5c4)c3n2)cn1 [PF04217903] (partner dose 1 µM),79.1,89.1,67.8,68.3,79.1,107,105,83.5,79.8,83.6
C[C@@H](N)c1ccc(C(=O)Nc2ccnc3[nH]ccc23)cc1 + c1cc(-c2cnn3cc(-c4ccc(OCCN5CCCCC5)cc4)cnc23)ccn1 [Dorsomorphin] (partner dose 0.4 µM),76.2,89.4,65.2,71.9,70.8,99.6,115,71.4,74.4,74.5
CCCCCCCCCCCCCCCCCCOP(=O)([O-])OC1CC[N+](C)(C)CC1 [Perifosine] + Cc1ccc(NC(=O)c2cccc(N(C)C)c2)cc1NC(=O)c1ccc(O)cc1 [ZM336372] (partner dose 2 µM),75.9,104,73.8,94,104,106,79.3,116,103,98.5
CCCCCCCCCCCCCCCCCCOP(=O)([O-])OC1CC[N+](C)(C)CC1 [Perifosine] + Oc1nc(-c2ccc(C(F)(F)F)cc2)nc2c1CSCC2 [XAV939] (partner dose 2 µM),102,115,63.1,89.2,83.9,97.6,112,82.3,99.8,88.6
CCCCCCCCCCCCCCCCCCOP(=O)([O-])OC1CC[N+](C)(C)CC1 [Perifosine] + CN(NC(=O)CC(=O)NN(C)C(=S)c1ccccc1)C(=S)c1ccccc1 [STA4783] (partner dose 0.006 µM),102,116,48.5,87.9,89.2,101,104,114,93.2,92.1
Cn1sc(=O)n(Cc2ccccc2)c1=O + Cc1cc([N+](=O)[O-])ccc1NS(=O)(=O)c1cc(Cl)ccc1Cl [FH535] (partner dose 1 µM),90.4,91,96.2,82.7,90.5,87.2,82.3,82.2,127,89
CCCCCCCCCCCCCCCCCCOP(=O)([O-])OC1CC[N+](C)(C)CC1 [Perifosine] + CC1(C)NC(=O)N(c2ccc([N+](=O)[O-])c(C(F)(F)F)c2)C1=O [nilutamide] (partner dose 1 µM),102,87.2,42.8,97.6,70.5,84.5,80.6,80.1,104,66.6
C[C@@H](N)c1ccc(C(=O)Nc2ccnc3[nH]ccc23)cc1 + CCc1ccc(CCOc2ccc(CC3SC(=O)NC3=O)cc2)nc1 [pioglitazone] (partner dose 2 µM),79.4,89.4,70.8,84.6,75.4,107,114,84.9,79.4,92.7
Cn1sc(=O)n(Cc2ccccc2)c1=O + CCCCCCCCCCCC1=C(O)C(=O)C=C(O)C1=O [Embelin] (partner dose 1.2 µM),97,94.8,87.8,99.1,82.3,94.7,100,101,117,85.9
Cn1sc(=O)n(Cc2ccccc2)c1=O + c1cc(-c2cnn3cc(-c4ccc(OCCN5CCCCC5)cc4)cnc23)ccn1 [Dorsomorphin] (partner dose 0.4 µM),97.6,107,104,111,89.1,111,100,101,105,89.8
Cn1sc(=O)n(Cc2ccccc2)c1=O + O=C(CCCCCCC(=O)Nc1ccccc1)NO [vorinostat] (partner dose 0.08 µM),97.8,94,99,122,83.1,104,105,89.7,93.5,76.6
C[C@@H](N)c1ccc(C(=O)Nc2ccnc3[nH]ccc23)cc1 + Cc1ccc(NC(=O)c2cccc(N(C)C)c2)cc1NC(=O)c1ccc(O)cc1 [ZM336372] (partner dose 2 µM),65.6,94.5,60.9,58.3,103,96.9,97.4,81.6,86.4,86.2
CCCCCCCCCCCCCCCCCCOP(=O)([O-])OC1CC[N+](C)(C)CC1 [Perifosine] + NC(=O)Nc1cc(-c2cccc(F)c2)sc1C(=O)N[C@H]1CCCNC1 [AZD7762] (partner dose 0.02 µM),110,111,60,138,112,110,116,116,154,114
